# Test results: publication PMC4336329 (PLoS ONE, 2015)
# Among all 310,000 compounds or so, about 14,000 (4.5%) showed an effect of 50% or more. Effects have a minus sign here. Some of the results follow.
# Molecular target: human ether-à-go-go-related gene (hERG) potassium channel (human, UniProt Q12809)
# Assay: primary screen, population patch clamp on CHO cells stably expressing hERG
# 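Also: peak tail current of the secondary pulse compared with the same well before compound.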
# Chain of human ether-à-go-go-related gene (hERG) potassium channel (Q12809 whole entry, looked up): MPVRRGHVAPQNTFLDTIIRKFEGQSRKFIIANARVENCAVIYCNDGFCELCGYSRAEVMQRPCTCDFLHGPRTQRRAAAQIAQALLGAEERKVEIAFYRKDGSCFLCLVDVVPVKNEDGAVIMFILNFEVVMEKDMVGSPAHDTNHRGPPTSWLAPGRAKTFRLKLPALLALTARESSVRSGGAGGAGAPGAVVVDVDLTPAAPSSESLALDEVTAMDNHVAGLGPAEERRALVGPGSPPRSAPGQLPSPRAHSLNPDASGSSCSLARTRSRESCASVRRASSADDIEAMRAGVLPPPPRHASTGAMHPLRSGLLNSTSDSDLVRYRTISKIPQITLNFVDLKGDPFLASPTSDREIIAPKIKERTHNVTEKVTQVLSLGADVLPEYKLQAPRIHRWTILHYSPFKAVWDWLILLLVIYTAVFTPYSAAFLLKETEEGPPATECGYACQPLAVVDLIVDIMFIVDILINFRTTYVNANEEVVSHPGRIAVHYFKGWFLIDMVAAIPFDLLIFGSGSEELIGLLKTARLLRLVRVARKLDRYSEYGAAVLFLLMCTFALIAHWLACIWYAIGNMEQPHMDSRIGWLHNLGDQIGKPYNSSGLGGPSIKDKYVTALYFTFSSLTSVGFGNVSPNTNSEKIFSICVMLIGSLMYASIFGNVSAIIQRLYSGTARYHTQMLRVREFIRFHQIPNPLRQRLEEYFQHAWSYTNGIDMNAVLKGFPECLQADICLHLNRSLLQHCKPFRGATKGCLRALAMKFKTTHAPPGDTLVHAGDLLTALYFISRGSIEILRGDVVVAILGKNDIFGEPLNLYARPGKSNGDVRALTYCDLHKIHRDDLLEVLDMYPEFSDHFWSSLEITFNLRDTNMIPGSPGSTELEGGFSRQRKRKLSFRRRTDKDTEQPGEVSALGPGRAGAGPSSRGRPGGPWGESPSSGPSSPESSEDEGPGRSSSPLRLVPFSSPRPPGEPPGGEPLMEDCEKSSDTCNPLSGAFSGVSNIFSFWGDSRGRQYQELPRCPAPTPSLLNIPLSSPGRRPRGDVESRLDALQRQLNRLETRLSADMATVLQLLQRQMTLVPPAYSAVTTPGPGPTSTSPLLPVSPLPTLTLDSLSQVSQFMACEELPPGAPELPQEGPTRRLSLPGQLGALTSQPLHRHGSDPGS
row,Structure (SMILES),"hERG current change (%, negative = inhibition) at 10uM"
1,CCCCN(C(=O)c1ccc(-c2ccc(Cl)cc2)o1)c1c(N)n(CCC)c(=O)[nH]c1=O,0.856%
2,COc1cccc(/C=C(\C#N)C(=O)NC2CCS(=O)(=O)C2)c1 (centres unmarked),1.19%
3,COc1ccc(Cl)cc1C(=O)OCC(=O)N(CC(C)C)c1c(N)n(Cc2ccccc2)c(=O)[nH]c1=O,-11.2%
4,CCN1CC2([N+](=O)[O-])CC=C(OC)C([N+](=O)[O-])(C1)C2 (centres unmarked),6.62%
5,COc1cc(/C=C/C(=O)OCC(=O)N2CCN(S(=O)(=O)c3ccc(C)cc3C)CC2)ccc1O,8.3%
6,CC(=O)c1ccc(-n2nncc2C(C)(C)C)cc1,-3.77%
7,C/C(CC1CC(C)(C)OC1=O)=N\NC(N)=S (centres unmarked),2.87%
8,COc1ccc(CN(CCN(C)C)Cc2ccccc2)c(OC)c1.O=C(O)C(=O)O,-46.1%
9,CCOC(=O)C1C(C(=O)NN)C1C(=O)Nc1ccccc1 (centres unmarked),18%
10,Fc1cc(F)c(NC(=S)N2CCOCC2)c(F)c1,16.4%
11,CCCCc1nc2n[nH]c(N)c2c2c1CCC2,-13.1%
12,O=C(Cc1cccc2ccccc12)Nc1c(F)cccc1F,12.6%
13,C=CCN(c1ccccc1)S(=O)(=O)c1cccc(C(=O)NCC(c2cccs2)N2CCOCC2)c1 (centres unmarked),-18.7%
14,Cc1ccc2[nH]cc(C(=O)NCc3cccs3)c(=O)c2c1,-13.7%
15,NC(=O)C1CCN(C(=O)c2ccc(F)c(S(=O)(=O)N3CCOCC3)c2)CC1,-0.931%
16,C/C(=N\NC(N)=S)c1cccnc1,2.44%
17,COCCOC(=O)c1c(C)oc2ccc(NS(=O)(=O)c3cccs3)cc12,-51.4%
18,COc1ccc(CNC(=O)CCS(=O)(=O)c2cc3c(cc2Cl)NC(=O)CO3)cc1,-9.24%
19,COc1cc(C(=O)NCc2nnc(SCC(=O)Nc3cccc(C)c3)o2)cc(OC)c1OC,-8.21%
20,COCCNCC(=O)NCC12CC3CC(CC(C3)C1)C2.Cl,5.25%
21,O=C(c1ccc(SCc2cccc(Br)c2)c([N+](=O)[O-])c1)N1CCN(c2ccccn2)CC1,15%
22,Cc1cc(C)nc(N2CCC(C(=O)NCc3cccs3)CC2)n1,-5.51%
23,Cn1c(-c2cccc([N+](=O)[O-])c2)cnc1NCc1cccc(F)c1.O=C(O)C(=O)O,-54.1%

row,Structure (SMILES),"hERG current change (%, negative = inhibition) at 10uM"
1,C/C(=N/NC(=O)c1ccc2c(c1)OCO2)c1ccc(Br)s1,-1.53%
2,O=S(=O)(CCn1cccc1)CCn1cccc1,17.4%
3,COc1cccc(CN2CC(C(=O)N(C)CCc3ccccc3)CCC2=O)c1 (centres unmarked),2.65%
4,CCCOP(=O)(c1ccc(N(C)C)cc1)C(O)c1cc(OC)c(OC)c(OC)c1 (centres unmarked),3.99%
5,Cc1ccc(-c2cnc(C3CC3)o2)cc1S(=O)(=O)Nc1ccccc1,-1.57%
6,Cc1ccc(C)c(NC(=O)CCN2CCCC(C)C2)c1 (centres unmarked),9.96%
7,O=[N+]([O-])c1cccc2c3c([nH]c12)CCCC3,17.4%
8,CN(C)C(CNC(=O)CSc1nc2sc3c(c2c(=O)n1C)CCC3)c1ccccc1 (centres unmarked),-3.25%
9,CC(C)C(=O)Nc1ccc(-c2ccc3nncn3n2)cc1,8.98%
10,CCOc1cc(CNc2ccc(O)cc2)ccc1OCc1ccc(Cl)cc1Cl,0.771%
11,C/C=C/C(=O)N1c2ccccc2C(C)=CC1(C)C,3.41%
12,COc1ccc(-c2nnc3sc(-c4ccco4)nn23)cc1OC,3.81%
13,O=C(CN1CCCCCC1)Nc1ccc(Cl)cn1,1.45%
14,CC(C)NC(=O)c1sc(=S)n2c1[nH]c(=O)c1ccc(C(=O)NCCc3ccc(Cl)cc3)cc12,14.1%
15,CC(C)(C)CN1CCC(Oc2cccc(C(=O)NCCCOc3cccnc3)c2)CC1,-12%
16,CC12c3ccccc3C(c3ccccc31)C1C(=O)N(c3ccncc3)C(=O)C12 (centres unmarked),5.22%
17,Cc1cc(OCC(=O)Nc2ccc(CN3CCCCC3)cc2)ccc1Cl,-73.9%
18,CC1CCCCC12NC(=O)N(CC(=O)OCc1cccc(F)c1)C2=O (centres unmarked),-2.4%
19,COc1ccc(N2C(=O)NC3CC2(C)Oc2ccccc23)cc1 (centres unmarked),5.59%
20,O=C(NCC1CCCO1)C1C2C=CC3(CN(Cc4cccs4)C(=O)C13)O2 (centres unmarked),-9.26%
21,CCOc1cc(C2C3=C(CCCC3=O)NC3=C2C(=O)CCC3)cc(Cl)c1O,-12.5%
22,CN1CCN(CC(O)COc2ccc(S(=O)(=O)N3CCOCC3)cc2)CC1 (centres unmarked),8.09%
23,CS(=O)(=O)Nc1ccc(C(=O)NCCSCc2ccccc2)cc1,-45.1%

row,Structure (SMILES),"hERG current change (%, negative = inhibition) at 10uM"
1,CCN(CC)CCNc1ccc2nnc(CCNS(=O)(=O)c3ccc(C)cc3)n2n1,15%
2,Cc1ccc(-c2ccc(=O)n(CC(=O)NCCN3CCCCC3C)n2)cc1 (centres unmarked),0.96%
3,Cc1cc(NC(=O)CC2(CC(=O)O)CCCC2)n(C)n1,14.3%
4,CC(C)COC(=O)c1ccc2c(c1O)C(=O)c1ccccc1C2=O,-4.08%
5,COc1cc(C(=O)Nc2ccc(O)cc2)ccc1OC(C)=O,-6.49%
6,NC(=O)C1CCN(CCC(=O)Nc2ccc(F)c(F)c2)CC1,11.1%
7,CC(=O)Nc1ccc(C(=S)NCC2(N(C)C)CCCCC2)cc1,7.09%
8,O=C(c1ccccc1)c1ccc(OC(=O)N2CCCC2)cc1,-11%
9,COc1ccc(NC(=O)C2CCCO2)cc1OC (centres unmarked),-0.381%
10,O=C(COc1ccccc1/C=C1/NC(=O)NC1=O)Nc1ccccc1,8.62%
11,CCOC(=O)CCNC(=O)Nc1ccc2nc(C)n(Cc3cccc(Cl)c3)c(=O)c2c1,-18.2%
12,CCC(C)c1ccccc1NC(=O)C(C)Sc1n[nH]c(N)n1 (centres unmarked),14.5%
13,Cn1c(N)c(S(=O)(=O)c2ccc(Br)cc2)c2nc3ccccc3nc21,18.5%
14,CC(=O)c1ccc(S(=O)(=O)Nc2cccc(S(=O)(=O)NC3=NCCC3)c2)cc1,14.3%
15,O=C(CCC(=O)Nc1ccc(F)cc1)N/N=C/c1ccc(Br)cc1,15.9%
16,C=CCOc1ccc(CNCC2CCCO2)cc1.Cl (centres unmarked),12.1%
17,COc1cc(NS(=O)(=O)c2cc3c(cc2C)NC(=O)CO3)cc(OC)c1,-62.2%
18,CCN1CCCC1CN(Cc1cc2ccc(C)c(C)c2[nH]c1=O)C(=O)Nc1ccccc1OC (centres unmarked),-63.3%
19,COC(c1ccccc1)c1nnc(CCC(=O)N(C)CCOc2ccccc2)o1 (centres unmarked),3.87%
20,CC(C)CCNC(=O)c1c(N)n(CC2CCCO2)c2nc3ccccc3nc12 (centres unmarked),-0.646%
21,COc1cc(/C=C2\N=C(c3ccccc3)OC2=O)ccc1OCc1c(C)no[n+]1[O-],3.47%
22,CCOc1ccccc1N1C(=O)c2ccc(S(=O)(=O)c3ccc(C(=O)O)cc3)cc2C1=O,10.6%
23,COc1ccc(/C=C/C(=O)OCC(=O)c2ccc[nH]2)cc1,6.05%

row,Structure (SMILES),"hERG current change (%, negative = inhibition) at 10uM"
1,CCCNC(=O)CCn1c(=S)oc2ccccc21,-1.98%
2,CCOC(=O)CNC(=O)CSc1nc2cccnc2n1Cc1ccccc1,-53.9%
3,CCOc1ccc(-c2cn(-c3ccccc3OC)c(=S)[nH]2)cc1,12.3%
4,c1ccc(NC2=NCCN2CCCC2CCCCC2)cc1,-47.6%
5,CC1CCCN(C(=O)CCCC(=O)N2CCCC(C)C2)C1 (centres unmarked),0.329%
6,O=C(NCCc1ccccn1)c1nc(Cn2ccc([N+](=O)[O-])n2)no1,-2.95%
7,COc1ccc(C2C3=C(CC(C)(C)CC3=O)Nc3cc4c(cc32)OCO4)cc1 (centres unmarked),-13%
8,Cc1ccccc1-n1nnnc1SCC(=O)Nc1ccc(N2CCN(C)CC2)cc1,-35.8%
9,O=C(O)c1nn(CC(=O)N(C2CCCCC2)C2CCCCC2)c(=O)c2ccccc12,-0.247%
10,COc1ccc(-c2cc(-c3ccccc3)nc(-c3ccc4c(c3)NC(=O)CO4)c2)cc1,-1.62%
11,N#CCCN(Cc1cccnc1)C(=S)NC(=O)C1CC1,16.8%
12,COc1ccc(C(=O)C2CCCN(Cc3cccc4c3OCO4)C2)cc1OC (centres unmarked),-73.8%
13,Cc1ccccc1OCC(=O)N/N=C/c1c(C)nn(-c2ccccc2)c1Cl,1.74%
14,O=C(NCc1cccnc1)c1ccc(N2CCOCC2)c([N+](=O)[O-])c1,-5.49%
15,Cc1nc2scc(C)n2c(=O)c1S(=O)(=O)N1CCN(c2ccccc2F)CC1,-33.6%
16,C=CCn1c(O)c(C(C)=Nc2ccc(NC(C)=O)cc2)c(=O)[nH]c1=O,3.28%
17,CCOc1cccc2sc(NC(=O)CCS(=O)(=O)c3ccccc3)nc12,7.94%
18,COc1ccc(/C=C/CN2CCC(Oc3ccc(C(=O)N4CCCCC4)cc3)CC2)cc1,-53.6%
19,Cc1cc(NC(=O)CSc2c[nH]c3ccccc23)no1,-16.9%
20,COc1ccc(Sc2nc(-c3ccccc3)ncc2C(=O)O)cc1,9.35%
